In publication PMC12820563, “FoxP3 forms a head-to-head dimer in vivo and stabilizes its multimerization on adjacent microsatellites”:
The list shows a part of the results.

target: T1, MBP-FoxP1dN (Mus musculus, UniProt P58462 326-579); assay: PD-seq (MBP pull-down with sequencing); 20 mM Tris-HCl pH 7.5, 100 mM NaCl, 1.5 mM MgCl2, 0.4 uM protein, 0.1 uM dsDNA library, 30 min, room temperature, amylose pull-down; high values mean tight binding; details: protein: recombinant; tags: His6-MBP; chain copies: 2; dsDNA, one strand shown
T1 sequence: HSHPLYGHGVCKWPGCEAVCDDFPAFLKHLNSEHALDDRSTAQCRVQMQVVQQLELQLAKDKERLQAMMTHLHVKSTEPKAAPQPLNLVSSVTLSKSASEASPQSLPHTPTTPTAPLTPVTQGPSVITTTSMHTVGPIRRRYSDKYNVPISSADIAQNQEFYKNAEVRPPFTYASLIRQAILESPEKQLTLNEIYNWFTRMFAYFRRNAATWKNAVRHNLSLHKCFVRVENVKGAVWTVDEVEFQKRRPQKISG
Procedure, shortened: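 Protein and DNA were mixed at 0.4 µM and 0.1 µM and held for 30 min at room temperature in Tris pH 7.5 buffer with NaCl and MgCl2; the protein was a His6-MBP-tagged, N-terminally truncated mouse FoxP3 or FoxP1 fragment from E. coli, and the DNA a Klenow-filled double-stranded degenerate library. Amylose resin captured the complexes, which were washed three times. Binding is read as reads-per-million enrichment of pull-down versus input after Illumina sequencing, with replicates pooled.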

| Sequence | binding signal |
| --- | --- |
| GATGATTGTTCTCCCAGCTGATGAATTTTACGCATCGAGTAAACAAATTTTCCTAATCTTTCTGTTCAAGCGCCATCTAC | 1.07 RPM ratio (pull-down/input) |
| GATGATTGTTCTCCCAGCTGATGAATTTGTAAGATCGAGTAAACAAATTTTCCTAATCTTTCTGTTCAAGCGCCATCTAC | 1.09 RPM ratio (pull-down/input) |
| GATGATTGTTCTCCCAGCTGATGAATTAATTCAGTCGAGTAAACAAATTTTCCTAATCTTTCTGTTCAAGCGCCATCTAC | 0.936 RPM ratio (pull-down/input) |
| GATGATTGTTCTCCCAGCTGATGAATTACGGACCTCGAGTAAACAAATTTTCCTAATCTTTCTGTTCAAGCGCCATCTAC | 0.838 RPM ratio (pull-down/input) |
| GATGATTGTTCTCCCAGCTGATGAATTCTAGGCCTCGAGTAAACAAATTTTCCTAATCTTTCTGTTCAAGCGCCATCTAC | 0.874 RPM ratio (pull-down/input) |
| GATGATTGTTCTCCCAGCTGATGAATTTTGCAACTCGAGTAAACAAATTTTCCTAATCTTTCTGTTCAAGCGCCATCTAC | 1.27 RPM ratio (pull-down/input) |
| GATGATTGTTCTCCCAGCTGATGAATTTGGATTCTCGAGTAAACAAATTTTCCTAATCTTTCTGTTCAAGCGCCATCTAC | 0.91 RPM ratio (pull-down/input) |
| GATGATTGTTCTCCCAGCTGATGAATTACCCAACTCGAGTAAACAAATTTTCCTAATCTTTCTGTTCAAGCGCCATCTAC | 0.944 RPM ratio (pull-down/input) |
| GATGATTGTTCTCCCAGCTGATGAATTAGAGAATTCGAGTAAACAAATTTTCCTAATCTTTCTGTTCAAGCGCCATCTAC | 0.899 RPM ratio (pull-down/input) |
| GATGATTGTTCTCCCAGCTGATGAATTTTAACCGTCGAGTAAACAAATTTTCCTAATCTTTCTGTTCAAGCGCCATCTAC | 0.848 RPM ratio (pull-down/input) |
| GATGATTGTTCTCCCAGCTGATGAATTCGCTATTTCGAGTAAACAAATTTTCCTAATCTTTCTGTTCAAGCGCCATCTAC | 0.918 RPM ratio (pull-down/input) |
| GATGATTGTTCTCCCAGCTGATGAATTGCGAATCTCGAGTAAACAAATTTTCCTAATCTTTCTGTTCAAGCGCCATCTAC | 1.03 RPM ratio (pull-down/input) |
| GATGATTGTTCTCCCAGCTGATGAATTCCGGGTTTCGAGTAAACAAATTTTCCTAATCTTTCTGTTCAAGCGCCATCTAC | 0.86 RPM ratio (pull-down/input) |
| GATGATTGTTCTCCCAGCTGATGAATTAGTAAAATCGAGTAAACAAATTTTCCTAATCTTTCTGTTCAAGCGCCATCTAC | 1.05 RPM ratio (pull-down/input) |
| GATGATTGTTCTCCCAGCTGATGAATTGTGTGTATCGAGTAAACAAATTTTCCTAATCTTTCTGTTCAAGCGCCATCTAC | 1.92 RPM ratio (pull-down/input) |
| GATGATTGTTCTCCCAGCTGATGAATTCCGAAGCTCGAGTAAACAAATTTTCCTAATCTTTCTGTTCAAGCGCCATCTAC | 0.729 RPM ratio (pull-down/input) |

| Sequence | binding signal |
| --- | --- |
| GATGATTGTTCTCCCAGCTGATGAATTATTACGTTCGAGTAAACAAATTTTCCTAATCTTTCTGTTCAAGCGCCATCTAC | 1.21 RPM ratio (pull-down/input) |
| GATGATTGTTCTCCCAGCTGATGAATTGGCGGCGTCGAGTAAACAAATTTTCCTAATCTTTCTGTTCAAGCGCCATCTAC | 0.896 RPM ratio (pull-down/input) |
| GATGATTGTTCTCCCAGCTGATGAATTCGACACCTCGAGTAAACAAATTTTCCTAATCTTTCTGTTCAAGCGCCATCTAC | 0.804 RPM ratio (pull-down/input) |
| GATGATTGTTCTCCCAGCTGATGAATTCTCTTACTCGAGTAAACAAATTTTCCTAATCTTTCTGTTCAAGCGCCATCTAC | 0.854 RPM ratio (pull-down/input) |
| GATGATTGTTCTCCCAGCTGATGAATTCAAGGTGTCGAGTAAACAAATTTTCCTAATCTTTCTGTTCAAGCGCCATCTAC | 0.904 RPM ratio (pull-down/input) |
| GATGATTGTTCTCCCAGCTGATGAATTGCCAAGATCGAGTAAACAAATTTTCCTAATCTTTCTGTTCAAGCGCCATCTAC | 1.02 RPM ratio (pull-down/input) |
| GATGATTGTTCTCCCAGCTGATGAATTCAGATTTTCGAGTAAACAAATTTTCCTAATCTTTCTGTTCAAGCGCCATCTAC | 0.908 RPM ratio (pull-down/input) |
| GATGATTGTTCTCCCAGCTGATGAATTGTTGTAATCGAGTAAACAAATTTTCCTAATCTTTCTGTTCAAGCGCCATCTAC | 1.96 RPM ratio (pull-down/input) |
| GATGATTGTTCTCCCAGCTGATGAATTAAACAGTTCGAGTAAACAAATTTTCCTAATCTTTCTGTTCAAGCGCCATCTAC | 1.24 RPM ratio (pull-down/input) |
| GATGATTGTTCTCCCAGCTGATGAATTGTCAGAGTCGAGTAAACAAATTTTCCTAATCTTTCTGTTCAAGCGCCATCTAC | 0.866 RPM ratio (pull-down/input) |
| GATGATTGTTCTCCCAGCTGATGAATTATCTCTATCGAGTAAACAAATTTTCCTAATCTTTCTGTTCAAGCGCCATCTAC | 1.04 RPM ratio (pull-down/input) |
| GATGATTGTTCTCCCAGCTGATGAATTAGCAGGATCGAGTAAACAAATTTTCCTAATCTTTCTGTTCAAGCGCCATCTAC | 0.814 RPM ratio (pull-down/input) |
| GATGATTGTTCTCCCAGCTGATGAATTGATATTTTCGAGTAAACAAATTTTCCTAATCTTTCTGTTCAAGCGCCATCTAC | 2.4 RPM ratio (pull-down/input) |
| GATGATTGTTCTCCCAGCTGATGAATTCTGTTGCTCGAGTAAACAAATTTTCCTAATCTTTCTGTTCAAGCGCCATCTAC | 1.25 RPM ratio (pull-down/input) |
| GATGATTGTTCTCCCAGCTGATGAATTGCGCTTGTCGAGTAAACAAATTTTCCTAATCTTTCTGTTCAAGCGCCATCTAC | 1.18 RPM ratio (pull-down/input) |
